The subject of one experiment is HSkMC (human skeletal muscle cells). As to the kind of experiment: cytotoxicity call (relative viability < 0.9). As to conditions: 10 µM.
The test system of a further experiment is HepG2. Put plainly: cytotoxicity call (relative viability < 0.9). As to conditions: 10 µM.
The test system of a further experiment is S. aureus RN4220. Put plainly: growth inhibition call (relative growth <= 0.2). As to conditions: 50 µM.

Each structure is given as a SMILES string. The list shows a part of the results.

For `CN1CCN(C(=O)[C@@H]2[C@@H](CO)[C@@H]3Cn4c(ccc(-c5cncnc5)c4=O)[C@@H]3N2CC2CC2)CC1`, the cytotoxicity call with HSkMC and in the experiment with HepG2 was “inactive” each time. The growth inhibition call in the experiment on S. aureus RN4220 was “inactive”.
For `C=CCOC(=O)[C@@H]1[C@H]2C(=O)O[C@H](c3ccccc3)[C@H](c3ccccc3)N2[C@H](c2ccc(OCCOC(=O)NCCCCCC(=O)NO)cc2)[C@]12C(=O)Nc1ccccc12`, the cytotoxicity call with HSkMC and with HepG2 was “inactive” each time. Besides, the growth inhibition call in the experiment on S. aureus RN4220 was “inactive”.
As for `Cc1noc(C)c1S(=O)(=O)N(C)C[C@H]1OCCCC[C@@H](C)Oc2ccc(NC(=O)Nc3ccc(C(F)(F)F)cc3)cc2C(=O)N([C@@H](C)CO)C[C@H]1C`, the cytotoxicity call with HSkMC and in the experiment with HepG2 was “inactive” throughout. For the same compound, the growth inhibition call in the experiment with S. aureus RN4220 was “inactive”.
As to `CC(C)NC(=O)Nc1ccc2c(c1)C(=O)N([C@@H](C)CO)C[C@@H](C)[C@H](CN(C)Cc1ccc(C(=O)O)cc1)O2`, the cytotoxicity call in the experiment with HSkMC and with HepG2 was “inactive” each time. The growth inhibition call in the experiment with S. aureus RN4220 was “inactive”.
For `CC(C)CC#Cc1ccc2c(c1)O[C@@H](CN(C)CC1CCOCC1)[C@H](C)CN([C@@H](C)CO)S2(=O)=O`, the cytotoxicity call with HSkMC was “inactive”. Moreover, in the experiment with HepG2, the cytotoxicity call is “active”. Also, the growth inhibition call with S. aureus RN4220 is “inactive”.
Consider `C[C@@H]1CN([C@H](C)CO)C(=O)c2cccc(NC(=O)c3ccc(-c4nccs4)cc3)c2O[C@H]1CN(C)C(=O)NC1CCCCC1`, for which the cytotoxicity call in the experiment with HSkMC and with HepG2 was “inactive” each time. For the same compound, the growth inhibition call with S. aureus RN4220 is “inactive”.
Consider `Cn1nc(C(=O)O)c2ccccc2c1=O`, for which the cytotoxicity call with HSkMC and in the experiment on HepG2 was “inactive” in each case. The growth inhibition call in the experiment with S. aureus RN4220 is “inactive”.
On to `Cc1noc(C)c1S(=O)(=O)Nc1ccc2c(c1)C(=O)N([C@@H](C)CO)C[C@H](C)[C@@H](CN(C)C(=O)Nc1ccc3c(c1)OCO3)O2`, for which the cytotoxicity call with HSkMC and with HepG2 was “inactive” in each case. Also, in the experiment with S. aureus RN4220, the growth inhibition call is “inactive”.
As for `COc1ccc(cc1)CN1C[C@]2(CN(C2)C(=O)C2CCOCC2)c2c(n(c3cc(ccc23)OC)C)[C@H]1CO`, the cytotoxicity call in the experiment with HSkMC and with HepG2 was “inactive” in each case. The growth inhibition call with S. aureus RN4220 was “inactive”.

Source of the values: the antibiotic and cytotoxicity screens of Wong et al. (2023).
